“And” between values parts separate entries of the source, which are not always exact repeats. Identical values can stand only once. This list was built around the results that the source calls inconclusive (neither active nor inactive); the mix of calls is not that of the screen. For some of these results: Potencies of inconclusive entries are doubtful fits and often do not repeat. Where a structure was tested more than once in an assay, its records may differ in their call. The source made the active and inactive calls. Unless noted, calls come from the whole dose curve; as a rule, active = well fitted curve in the direction sought with a large enough effect in the repeat runs; inconclusive = weak or mixed curves; inactive = no such curve, though single readings can be large; an effect the other way counts as inactive or inconclusive.
What was measured:
[1] = qHTS assay to identify small molecule agonists of the estrogen receptor beta (ER-beta) signaling pathway - cell viability counter screen (AID 1259380); note: potency is the fitted concentration of half-maximal effect; nearly all actives have a fitted effect of over 30% in size
In short: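 Viability of ER-beta-UAS-bla HEK293T cells was determined by CellTiter-Glo luminescence following 16 hr treatment with test compounds at 37C.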

[2] = qHTS assay to identify small molecule antagonists of the estrogen receptor beta (ER-beta) signaling pathway - cell viability counter screen (AID 1259382); note: potency is the fitted concentration of half-maximal effect; nearly all actives have a fitted effect of over 55% in size
In short: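 Tox21 10K library tested in qHTS format on ER-beta-bla HEK293T cells stimulated with 1nM E2; 16 hr treatment at 37C. Same-well CellTiter-Glo luminescence served as the cell viability measure.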

[3] = biological target: Progesterone receptor (Homo sapiens) (UniProt P06401); assay: qHTS assay to identify small molecule antagonists of the progesterone receptor (PR) signaling pathway (AID 1346795; active = well fitted inhibition curve with a large enough effect in the signal ratio in the repeat runs, not every such curve was filed as active; inconclusive = weak or mixed curves; the % refers to the signal ratio; note: potency is the fitted concentration of half-maximal effect; for activity change, negative = inhibition: % is set by controls: 0 for no effect and ±100 for the full control effect); settings: PR-UAS-bla HEK293T, beta-lactamase FRET ratio, 16 h; activity change, negative = inhibition: at 92.4 µM (top of the series) unless noted
UniProt P06401, sequence (P06401 whole entry, looked up): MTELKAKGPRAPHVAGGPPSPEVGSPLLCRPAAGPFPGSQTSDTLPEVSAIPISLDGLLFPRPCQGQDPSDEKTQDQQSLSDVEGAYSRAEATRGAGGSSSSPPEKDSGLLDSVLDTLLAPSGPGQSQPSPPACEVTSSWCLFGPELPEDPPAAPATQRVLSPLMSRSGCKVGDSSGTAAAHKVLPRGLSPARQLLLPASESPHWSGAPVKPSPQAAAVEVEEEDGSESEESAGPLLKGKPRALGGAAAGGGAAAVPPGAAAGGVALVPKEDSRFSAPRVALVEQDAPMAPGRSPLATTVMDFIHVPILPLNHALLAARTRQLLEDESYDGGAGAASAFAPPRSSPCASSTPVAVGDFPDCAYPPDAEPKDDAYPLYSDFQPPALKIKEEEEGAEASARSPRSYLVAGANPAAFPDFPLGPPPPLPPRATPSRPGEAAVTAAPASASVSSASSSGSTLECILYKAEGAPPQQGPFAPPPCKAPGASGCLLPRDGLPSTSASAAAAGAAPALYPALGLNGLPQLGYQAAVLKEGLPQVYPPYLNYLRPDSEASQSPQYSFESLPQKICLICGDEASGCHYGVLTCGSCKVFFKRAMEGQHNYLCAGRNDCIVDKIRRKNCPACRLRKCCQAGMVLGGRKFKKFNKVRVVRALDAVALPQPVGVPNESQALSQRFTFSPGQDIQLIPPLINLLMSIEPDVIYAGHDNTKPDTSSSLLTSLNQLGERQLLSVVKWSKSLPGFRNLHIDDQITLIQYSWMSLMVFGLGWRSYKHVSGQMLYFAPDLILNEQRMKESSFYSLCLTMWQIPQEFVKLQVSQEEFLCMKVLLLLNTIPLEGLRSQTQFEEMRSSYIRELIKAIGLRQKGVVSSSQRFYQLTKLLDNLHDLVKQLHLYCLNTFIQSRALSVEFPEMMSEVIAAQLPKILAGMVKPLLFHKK
In short: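 PR-UAS-bla HEK293T cells carrying a UAS-driven beta-lactamase reporter were plated in medium with 2% charcoal-stripped FBS and rested 6 hr at 37C. Compounds were added with 1 nM R5020 (final) for 16 hr, then FRET substrate loaded 2 hr at room temperature.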

[4] = qHTS assay to identify small molecule antagonists of the progesterone receptor (PR) signaling pathway - cell viability counter screen (AID 1346798); note: nearly all actives have a fitted effect of over 50% in size; note: potency is the fitted concentration of half-maximal effect
In short: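 PR-UAS-bla HEK293T cells in medium with 2% charcoal-stripped FBS were treated with compounds plus R5020 for 16 hr at 37C. Cell viability was then read by CellTiter-Glo luminescence after 30 min at room temperature in the same wells.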

[5] = qHTS assay to identify small molecule agonists of the progesterone receptor (PR) signaling pathway - cell viability counter screen (AID 1346799; calls by dose curve; note: nearly all actives have a fitted effect of over 45% in size; note: potency is the fitted concentration of half-maximal effect)
In short: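 PR-UAS-bla HEK293T cells, 3,000 per well in medium with 2% charcoal-stripped FBS, were preincubated 6 hr at 37C, then exposed to compounds for 16 hr; viability was read as CellTiter-Glo luminescence after 30 min at room temperature.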

[6] = Human pregnane X receptor (PXR) small molecule agonists, qHTS cell viability counter screen (AID 1346977); note: potency is the fitted concentration of half-maximal effect; nearly all actives have a fitted effect of over 50% in size
In short: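 PXR-Luc HepG2 cells in medium with 5% charcoal-stripped FBS were pre-incubated 5hr, then exposed to compounds for 24hr at 37C. Viability was read in the same wells by CellTiter-Fluor fluorescence, reagent added after 23hr with a 1hr incubation.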

[7] = Caspase-3/7 induction in CHO-K1 cells by small molecules, qHTS assay (AID 1346980); note: nearly all actives have a fitted effect of over 15% in size; note: potency is the fitted concentration of half-maximal effect
In short: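 Luminescent Caspase-Glo 3/7 read (30min, room temperature) quantified apoptosis induction. Cells were wild-type CHO-K1, treated with compound for 17hr at 37 C and 5% CO2.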

[8] = qHTS assay to identify small molecule agonists of the estrogen receptor alpha (ER-alpha) signaling pathway in the presence of an antagonist - cell viability counter screen (AID 1259386);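 note: potency is the fitted concentration of half-maximal effect; cells exposed to compounds for 22 h at 37 °C before the viability read; nearly all actives have a fitted effect of over 30% in size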
In short: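 Fluorescent CellTiter-Fluor viability signal from VM7Luc4E2 cells, with the reagent added during the final hour of a 22hr compound exposure at 37C in the presence of 10.0nM ICI-182,780.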

[9] = biological target: Progesterone receptor (Homo sapiens) (UniProt P06401); assay: qHTS assay to identify small molecule agonists of the progesterone receptor (PR) signaling pathway (AID 1346784; calls by dose curve; note: nearly all actives have a fitted effect of over 30% in size; note: potency is the fitted concentration of half-maximal effect; for activation: % is set by controls: 0 for no effect and ±100 for the full control effect); settings: PR-UAS-bla HEK293T, beta-lactamase FRET ratio, 16 h; activation: at 92.4 µM (top of the series) unless noted
In short: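 PR-UAS-bla HEK 293T cells carrying a UAS-driven beta-lactamase reporter were seeded in medium with 2% charcoal-stripped FBS, preincubated 6 hr at 37C, then exposed to compounds in DMSO for 16 hr; agonism was read by LiveBLAzer B/G FRET fluorescence.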

[10] = qHTS assay to identify small molecule antagonists of the TGF-beta/Smad signaling pathway (AID 1346924; active = well fitted inhibition curve with a large enough effect in the signal ratio in the repeat runs, not every such curve was filed as active; inconclusive = weak or mixed curves; the % refers to the signal ratio); settings: SBE-bla HEK293T, TGF-beta/Smad reporter, beta-lactamase ratio; activity, negative = inhibition: at 76.8 µM (top of the series) unless noted
In short: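 SBE-bla HEK 293T cells were plated overnight, then received compound in DMSO plus TGF-beta1 (added as a 0.25 ng/mL solution) and were incubated 5 h at 37 C. Beta-lactamase reporter activity was read after 2 h at room temperature with LiveBLAzer B/G FRET substrate (ex 405, em 460/530 nm).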

[11] = Caspase-3/7 induction in HepG2 cells by small molecules, qHTS assay (AID 1346978); note: nearly all actives have a fitted effect of over 15% in size; note: potency is the fitted concentration of half-maximal effect
In short: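 Caspase-3/7 induction was measured by Caspase-Glo 3/7 luminescence (30 min, room temperature) after a 17 hr compound exposure of wild-type HepG2 cells seeded at 2,000 per well and pre-incubated 5 hr.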

[12] = qHTS assay to identify small molecule antagonists of the TGF-beta/Smad signaling pathway - cell viability counter screen (AID 1346824); note: potency is the fitted concentration of half-maximal effect; nearly all actives have a fitted effect of over 50% in size
In short: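 Cytotoxicity counter-screen run in the same wells as the beta-lactamase Smad reporter read: CellTiter-Glo luminescence after 30 min at room temperature. HEK 293T SBE-bla cells had 5 hr compound exposure at 37 C with TGF-beta1 (0.25 ng/mL stock).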

[13] = qHTS assay to identify small molecule agonists of the TGF-beta/Smad signaling pathway - cell viability counter screen (AID 1346829); note: potency is the fitted concentration of half-maximal effect; nearly all actives have a fitted effect of over 45% in size
In short: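 SBE-bla HEK 293T cells plated overnight, compound exposure 5 hr at 37 C. Viability read in the same wells by CellTiter-Glo luminescence after 30 min at room temperature, following the beta-lactamase read.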

[14] = Caspase-3/7 induction in CHO-K1 cells by small molecules, qHTS cell viability counter screen (AID 1346979); note: nearly all actives have a fitted effect of over 35% in size; note: potency is the fitted concentration of half-maximal effect
In short: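 Wild-type CHO-K1 cells were seeded at 1,500 per well, rested 5hr at 37 C, then exposed to compounds in DMSO. After 16hr, CellTiter-Fluor reagent was added and fluorescence read 1hr later as the viability measure.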
Tags give direction and shape of the fitted curve or compound fluorescence and quenching.

Structure (SMILES): CCc1cc(OC)c(C[C@H](C)N)cc1OC
- Potency [1]: active: 71.5 µM
- Potency [2]: inconclusive: 63.7 µM [cytotoxic, partial curve]
- activity change, negative = inhibition [3]: inconclusive: -30.6%
- Potency [4]: inconclusive: 35.8 µM [cytotoxic, partial curve]
- Potency [5]: inconclusive: 45.1 µM [cytotoxic, partial curve]
- Potency [6]: inconclusive: 71.5 µM [cytotoxic, single point]
- Potency [7]: inactive

Structure (SMILES): Oc1cccc2cccnc12
- Potency [1]: active: 1.38 µM and inconclusive: 1.83 µM [cytotoxic, full curve] and active: 1.22 µM
- Potency [2]: inconclusive: 1.73 µM [cytotoxic, full curve] and inconclusive: 2.17 µM [cytotoxic, full curve]
- Potency [8]: inconclusive: 9.69 µM [cytotoxic, full curve]
- activation [9]: inconclusive: -7.62% and inconclusive: -23.4%
- Potency [5]: inconclusive: 1.09 µM [cytotoxic, full curve] and inconclusive: 2.05 µM [cytotoxic, full curve] and active: 770 nM
- activity, negative = inhibition [10]: inconclusive: 0.979% and inconclusive: -1.73% and inconclusive: -15%
- Potency [11]: active: 54.8 µM and active: 10.6 µM
- Potency [7]: inconclusive: 2.18 µM [activator, partial curve]

Structure (SMILES): C[C@]12Cc3nonc3C[C@@H]1CC[C@@H]1[C@@H]2CC[C@@]2(C)[C@H]1CC[C@]2(C)O
- Potency [1]: active: 26.6 µM
- Potency [2]: active: 29.8 µM
- Potency [9]: active: 1.19 µM
- Potency [3]: inconclusive: 33.5 µM
- Potency [4]: inconclusive: 33.5 µM [cytotoxic, single point]
- Potency [5]: inconclusive: 29.8 µM [cytotoxic, single point]
- Potency [12]: inconclusive: 19 µM [cytotoxic, partial curve]
- Potency [13]: inconclusive: 23.9 µM [cytotoxic, single point]

Structure (SMILES): NCCCNCCCN
- Potency [1]: inconclusive: 69.6 µM [cytotoxic, single point]
- Potency [2]: inconclusive: 69.6 µM [cytotoxic]
- Potency [4]: inactive
- Potency [14]: inactive

Structure (SMILES): CC(C)(C)c1ccc(OP(=O)(Oc2ccccc2)Oc2ccccc2)cc1
- Potency [1]: inconclusive: 61.5 µM [cytotoxic, partial curve]
- Potency [2]: inconclusive: 43.5 µM [cytotoxic, partial curve]
- Potency [3]: active: 21.8 µM
- Potency [6]: inconclusive: 69 µM [cytotoxic, single point]
- Potency [14]: inconclusive: 69 µM [cytotoxic, single point]

Structure (SMILES): Cc1ccc2c(c1N)C(=O)c1ccccc1C2=O
- Potency [1]: active: 30.3 µM and inconclusive: 15.4 µM [cytotoxic, full curve]
- Potency [2]: inconclusive: 67.8 µM [cytotoxic, partial curve, poor fit]
- Potency [3]: inconclusive: 7.61 µM [falling, full curve]
- activity change, negative = inhibition [3]: inconclusive: -41.3%
- Potency [5]: inactive

Structure (SMILES): Clc1ccc(C(c2ccccc2Cl)C(Cl)(Cl)Cl)cc1 (configuration not stated)
- Potency [1]: active: 48.9 µM and inconclusive: 40.2 µM [cytotoxic, single point]
- Potency [2]: inconclusive: 54.8 µM [cytotoxic, single point]
- Potency [5]: inconclusive: 69 µM [cytotoxic, single point] and inconclusive: 45.1 µM [cytotoxic, single point]
- Potency [13]: inconclusive: 40.5 µM [cytotoxic, single point]
- activity, negative = inhibition [10]: inconclusive: -14.4%
- Potency [6]: inconclusive: 70.8 µM [cytotoxic, single point]
- Potency [11]: inactive
- Potency [14]: inconclusive: 69 µM [cytotoxic, single point] and inconclusive: 50.6 µM [cytotoxic, single point]
- Potency [7]: inconclusive: 77.4 µM [activator, single point] and inconclusive: 50.6 µM [activator, single point]

Structure (SMILES): C[C@]12CCC(=O)C[C@@H]1CC[C@@H]1[C@@H]2CC[C@]2(C)[C@@H](O)CC[C@@H]12
- Potency [1]: active: 13.5 µM and active: 12.2 µM
- Potency [2]: inconclusive: 13.5 µM [cytotoxic, partial curve] and inconclusive: 17.3 µM [cytotoxic, partial curve]
- Potency [8]: inconclusive: 67.8 µM [cytotoxic, single point]
- Potency [9]: active: 3.03 µM and active: 1.94 µM
- Potency [3]: inconclusive: 480 nM [rising, full curve, poor fit] and inconclusive: 54.6 nM [falling, full curve, poor fit]
- Potency [14]: inconclusive: 67.8 µM [cytotoxic, single point] and inconclusive: 43.3 µM [cytotoxic, single point]

Reference: PubChem BioAssay (Tox21)
